Measurements published in the supplement of paper PMC7125110.
± gives the standard error. Variants at the floor of the assay are shown more often than the library holds them.

B1: glmS ribozyme (parent)
chain: AUAAAAGCGCCAGAACUACAGAAAUGUAGUUGACGAGGAGGAGGUUUAUCGAAUUUUCGGCGGAUGCCUCCAAA

Columns and labels:
Settings in all cases: with glucosamine-6-phosphate
[1] = variants of: B1; experiment: self-cleavage kobs at 640 uM GlcN6P; higher = faster cleavage; RNA array
Outline: (§1)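 Barcoded ribozyme variants on sequenced MiSeq chips were transcribed in situ by E. coli RNA polymerase and followed at 37 °C through a hybridised Cy3 probe. Glucosamine-6-phosphate at 40 μM to 10 mM in HEPES/KCl/Mg(OAc)2 buffer was flowed in, and tiles were imaged over ~14 h. Signals were normalised to baseline and to non-cleaving reference variants, and per-tile medians were fit to one- or two-exponential decays to give kobs. Weighted Michaelis–Menten fits across concentrations gave kcat and KM.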

[2] = variants of: B1; experiment: self-cleavage kobs at 160 uM GlcN6P; higher = faster cleavage; RNA array
Outline: as §1

[3] = variants of: B1; experiment: self-cleavage kobs at 2500 uM GlcN6P; higher = faster cleavage; RNA array
Outline: as §1

[4] = variants of: B1; experiment: self-cleavage kobs at 10000 uM GlcN6P; higher = faster cleavage; RNA array
Outline: as §1

Question: AUAAAAGCGCCAGAACUACAUAAAUGUAGUUGACGAGGAGGAGGUUUAUCGAAUUUUCGGCGGAUGCCUCGAAA [G21U C71G] was tested. Which “self-cleavage kobs at 640 uM GlcN6P” value [1] did it give?
Answer: Its value is 0.000218 ± 3.9e-05 s⁻¹.

Question: And the “self-cleavage kobs at 160 uM GlcN6P” value [2]?
Answer: The value was 0.000226 ± 5.1e-05 s⁻¹.

Question: And the “self-cleavage kobs at 2500 uM GlcN6P” value [3]?
Answer: The value was 0.000294 ± 5.9e-05 s⁻¹.

Question: With AUAAAAGCGCCAGAACUACAGAAAUGUAAUUGACGAGGAGGAGGUUUAUCGAAUUUUCGGCGCAUGCCUGCAAA [G29A G63C C70G] as the variant, how does the “self-cleavage kobs at 640 uM GlcN6P” value [1] read?
Answer: Its value is 0.000155 ± 4.1e-05 s⁻¹.

Question: What about the “self-cleavage kobs at 160 uM GlcN6P” value [2] of the same variant?
Answer: The value was 7.77e-05 ± 3e-05 s⁻¹.

Question: What about the “self-cleavage kobs at 2500 uM GlcN6P” value [3] of the same variant?
Answer: Its value is 7.4e-05 ± 2.1e-05 s⁻¹.

Question: Which results are given for AUAAAAGCGCCAGAACUACAGAAAUGUAAUUGACGAAGAGGAGGUUUAUCGAAUUUUCGGCGGAUGCCUCCAAA [G29A G37A]?
Answer: self-cleavage kobs at 640 uM GlcN6P [1]: 0.000124 ± 3.6e-05 s⁻¹; self-cleavage kobs at 2500 uM GlcN6P [3]: 0.000156 ± 5.7e-05 s⁻¹

Question: For AUAAAAGCGCCAGAACUAUAGAAAUGUAGUUGACGAGGAGCAGGUUUGUCGAAGUAUCGGCGGAUGCCUCCAAA [C19U G41C A48G U54G U56A], which “self-cleavage kobs at 640 uM GlcN6P” value [1] is on record?
Answer: Its value is < 1e-05 s⁻¹.

Question: With AUAAAAGCGCCAGAACUAAAGAAAUGUAGUUGACUACGAGGAGGUUUAUCGAAUUUUCGGCGGAUGCCUCCAAA [C19A G35U G37C] as the variant, how does the “self-cleavage kobs at 640 uM GlcN6P” value [1] read?
Answer: Its value is < 1e-05 s⁻¹.

Question: Which results are given for AUAAAAGCGCCAGAACUACAUAAAUGUAGUUGACGAGGAGGAGGUUUAUCGAAUUUUCGGCGGAUGCCGCCAAA [G21U U69G]?
Answer: self-cleavage kobs at 640 uM GlcN6P [1]: 6.25e-05 ± 1.4e-05 s⁻¹; self-cleavage kobs at 2500 uM GlcN6P [3]: 9.89e-05 ± 2e-05 s⁻¹

Question: With AUAAAAGCGCCAGAACUACAGAUAUGUAGUUGAGGAGGAGGAGCUUUAUCGAAUUUUCGGCGGAUGCCUCCAAA [A23U C34G G44C] as the variant, how does the “self-cleavage kobs at 640 uM GlcN6P” value [1] read?
Answer: The value was < 1e-05 s⁻¹.

Question: For AUAAAAGCGCCAGAACUACAGAAAUGUAAUUGACGAGGAGGAGGUUUAUCUAAUUUUCGGCGGAUGCCUCCAAA [G29A G51U], which “self-cleavage kobs at 640 uM GlcN6P” value [1] is on record?
Answer: The value was < 1e-05 s⁻¹.

Question: What about the “self-cleavage kobs at 2500 uM GlcN6P” value [3] of the same variant?
Answer: Its value is < 1e-05 s⁻¹.

Question: What about the “self-cleavage kobs at 10000 uM GlcN6P” value [4] of the same variant?
Answer: The value was < 1e-05 s⁻¹.

Question: For AUAAAAGCGCCAGAACUACAGAAACGUAGUUGACGAGGAGGAGGUUUAUCGGAUUUUCUGCGGAUGCCUCCAAA [U25C A52G G59U], which “self-cleavage kobs at 640 uM GlcN6P” value [1] is on record?
Answer: The value was < 1e-05 s⁻¹.

Question: What about the “self-cleavage kobs at 160 uM GlcN6P” value [2] of the same variant?
Answer: The value was < 1e-05 s⁻¹.

Question: Which “self-cleavage kobs at 640 uM GlcN6P” value [1] does the source give for AUAAAAGCGCCAGAACUACAGAAAUGUAAUUGACGAGGCGGAGGUUUAUCGAAUUUUCGGGGGAUGCCUCCAAA [G29A A39C C61G] here?
Answer: Its value is < 1e-05 s⁻¹.

Question: And the “self-cleavage kobs at 160 uM GlcN6P” value [2]?
Answer: Its value is < 1e-05 s⁻¹.

Question: What about the “self-cleavage kobs at 10000 uM GlcN6P” value [4] of the same variant?
Answer: Its value is < 1e-05 s⁻¹.

Question: AUAAAAGCGCCAGAACUACAGAAAUGUAAUCGAUGAGGAGGAGGUUUAUCGAAUUUUCGGCGGAUGCCUCCAAA [G29A U31C C34U] was tested. Which “self-cleavage kobs at 640 uM GlcN6P” value [1] did it give?
Answer: Its value is < 1e-05 s⁻¹.

Question: What about the “self-cleavage kobs at 160 uM GlcN6P” value [2] of the same variant?
Answer: The value was < 1e-05 s⁻¹.

Question: And the “self-cleavage kobs at 2500 uM GlcN6P” value [3]?
Answer: Its value is < 1e-05 s⁻¹.

Question: What does the source list for AUAAAAGCGCCAGAACUACAGAAAUGUAAUUGACGAGGACGAGGUUUAUCGAAUAGUCGGCGGAUGUCUCCAAA [G29A G40C U55A U56G C67U]?
Answer: self-cleavage kobs at 640 uM GlcN6P [1]: < 1e-05 s⁻¹; self-cleavage kobs at 160 uM GlcN6P [2]: < 1e-05 s⁻¹; self-cleavage kobs at 2500 uM GlcN6P [3]: < 1e-05 s⁻¹

Question: How did the “self-cleavage kobs at 640 uM GlcN6P” value [1] turn out when AUAAAAGCGCCAGAACUACAGAAAUGUAAUUGACGAGGAGGAUGUUUCUCGAAUUUUCGGCGGAUGCCUCCAAA [G29A G43U A48C] was run?
Answer: The value was < 1e-05 s⁻¹.

Question: And the “self-cleavage kobs at 10000 uM GlcN6P” value [4]?
Answer: The value was < 1e-05 s⁻¹.

Question: For AUAAAAGCGCCAGAACUACAGAAAUGUAAUUGACGAGUAGGAGGUUUAUCGAAUUUUCGGCGGAUGCCUCCAAA [G29A G38U], which “self-cleavage kobs at 640 uM GlcN6P” value [1] is on record?
Answer: Its value is < 1e-05 s⁻¹.

Question: What about the “self-cleavage kobs at 160 uM GlcN6P” value [2] of the same variant?
Answer: The value was < 1e-05 s⁻¹.

Question: What about the “self-cleavage kobs at 2500 uM GlcN6P” value [3] of the same variant?
Answer: The value was < 1e-05 s⁻¹.

Question: How did the “self-cleavage kobs at 640 uM GlcN6P” value [1] turn out when AUAAAAGCGCCAGAACUACAGAAAUGUAAUUAACCAGAAGGAGGUUUAUCGAAUUUUCGGCGGUUGCCUCCAAA [G29A G32A G35C G38A A64U] was run?
Answer: The value was < 1e-05 s⁻¹.

Question: AUAAAAGCGCCAGAACUACAUAAAUGUAGUUGACGAGGAGGAGGUUUAUCGAAUUUUCGGCGGAUGCCUGCAAA [G21U C70G] was tested. Which “self-cleavage kobs at 640 uM GlcN6P” value [1] did it give?
Answer: Its value is 0.000253 ± 5.1e-05 s⁻¹.

Question: And the “self-cleavage kobs at 2500 uM GlcN6P” value [3]?
Answer: The value was 0.000154 ± 3.9e-05 s⁻¹.

Question: What about the “self-cleavage kobs at 10000 uM GlcN6P” value [4] of the same variant?
Answer: Its value is 9.23e-05 ± 2.3e-05 s⁻¹.

Question: Which “self-cleavage kobs at 640 uM GlcN6P” value [1] does the source give for AUAAAAGCGCCAGAACUACAGAAAUGUAAUUGACGAGGAAGAGGUUUAUCGAAUAUUCGGCGGUUGCCUCCAAA [G29A G40A U55A A64U] here?
Answer: Its value is < 1e-05 s⁻¹.

Question: Which “self-cleavage kobs at 640 uM GlcN6P” value [1] does the source give for AUAAAAGCGCCAGAACUACAGAACUGUAGCUGACCAGGACGAGGUUUAUCGAAUUUAGGGCGGAUGCCUCCAAA [A24C U30C G35C G40C U57A C58G] here?
Answer: Its value is < 1e-05 s⁻¹.

Question: What about the “self-cleavage kobs at 160 uM GlcN6P” value [2] of the same variant?
Answer: The value was < 1e-05 s⁻¹.
